Assay results published in patent US11178870B2 (priority 2017, dated 2021).

Columns and labels:
Format in all cases: in vivo
[1] = tested on: Alternaia brassicicola; test: Test Example C: Alternaria sooty spot on cabbage; conditions: for Test C control value: Alternaria sooty spot on cabbage; for control value, Test C (Alternaria sooty spot on cabbage): Table 7, Test C; for Test C control value (Alternaria sooty spot on cabbage): class of control value, Table 7
[2] = tested on: Puccinia recondita; test: Test Example E: Brown rust on wheat; conditions: for Test E control value: Brown rust on wheat; for control value, Test E (brown rust on wheat): Table 7, Test E; for Test E control value (brown rust on wheat): class of control value, Table 7
[3] = tested on: Botrytis cinerea; test: Test Example B: Gray mold on tomato; conditions: for Test B control value: Gray mold on tomato; for control value, Test B (gray mold on tomato): Table 7, Test B; for Test B control value (gray mold on tomato): class of control value, Table 7
[4] = tested on: Plasmopara viticola; test: Test Example G: Downy mildew on vine; conditions: for Test G control value: Downy mildew on vine, 250 ppm sprayed, 7 to 10 days after inoculation; for Test G control value / Test G control value (downy mildew on vine): 2.5 ml/pot; for control value, Test G (downy mildew on vine): 250 ppm sprayed (2.5 ml/pot) before inoculation, assessed 7 to 10 days after inoculation; for Test G control value (downy mildew on vine): 250 ppm spray, investigated 7 to 10 days after inoculation
[5] = tested on: Blumeria graminis f. sp. hordei; test: Test Example D: Powdery mildew on barley; conditions: for Test D control value: Powdery mildew on barley; for control value, Test D (powdery mildew on barley): Table 7, Test D; for Test D control value (powdery mildew on barley): class of control value, Table 7

Structure (SMILES)	control value, Test C (Alternaria sooty spot on cabbage) [1]	control value, Test E (brown rust on wheat) [2]	control value, Test B (gray mold on tomato) [3]	control value, Test G (downy mildew on vine) [4]	control value, Test D (powdery mildew on barley) [5]	Test C control value (Alternaria sooty spot on cabbage) [1]	Test E control value (brown rust on wheat) [2]	Test B control value (gray mold on tomato) [3]	Test G control value (downy mildew on vine) [4]	Test D control value (powdery mildew on barley) [5]	also measured
O=c1ccc(-c2cccnc2Cl)c(-c2c(F)cccc2F)n1CC(F)(F)F [Compound 58]	–	–	–	–	–	–	–	–	–	–	Test C control value [1]: L (L shows the control value of 50% or less); Test E control value [2]: H (H shows the control value more than 50%); Test B control value [3]: H (H shows the control value more than 50%); Test G control value [4]: L (L shows the control value of 50% or less); Test D control value [5]: H (H shows the control value more than 50%)
CCn1c(-c2c(F)cccc2F)c(-n2cc(F)cn2)cc(Cl)c1=O [Compound 319]	H (H shows the control value more than 50%)	H (H shows the control value more than 50%)	H (H shows the control value more than 50%)	L (L shows the control value of 50% or less)	H (H shows the control value more than 50%)	–	–	–	–	–	–
Cc1cnn(-c2ccc(=O)n(CC(F)F)c2-c2ccc(F)cc2Br)c1 [Compound 338]	H (H shows the control value more than 50%)	H (H shows the control value more than 50%)	H (H shows the control value more than 50%)	L (L shows the control value of 50% or less)	H (H shows the control value more than 50%)	–	–	–	–	–	–
CCn1c(-c2ccc(OC)cc2Cl)c(-c2ccsc2Cl)ccc1=O [Compound 497]	–	–	–	–	–	H (H shows the control value more than 50%)	H (H shows the control value more than 50%)	H (H shows the control value more than 50%)	H (H shows the control value more than 50%)	L (L shows the control value of 50% or less)	–
CCn1c(-c2ccccc2Br)c(-n2cc(C)cn2)ccc1=O [Compound 268]	H (H shows the control value more than 50%)	H (H shows the control value more than 50%)	L (L shows the control value of 50% or less)	L (L shows the control value of 50% or less)	H (H shows the control value more than 50%)	–	–	–	–	–	–
CCn1c(-c2ccc(F)cc2Br)c(-n2cc(F)cn2)ccc1=O [Compound 326]	H (H shows the control value more than 50%)	H (H shows the control value more than 50%)	H (H shows the control value more than 50%)	L (L shows the control value of 50% or less)	H (H shows the control value more than 50%)	–	–	–	–	–	–
CCn1c(-c2ccc(OC)cc2Cl)c(-n2cc(Cl)cn2)ccc1=O [Compound 428]	–	–	–	–	–	H (H shows the control value more than 50%)	H (H shows the control value more than 50%)	L (L shows the control value of 50% or less)	L (L shows the control value of 50% or less)	H (H shows the control value more than 50%)	–
CCn1c(-c2c(F)cccc2Br)c(-n2cc(Cl)cn2)cc(Br)c1=O [Compound 219]	L (L shows the control value of 50% or less)	L (L shows the control value of 50% or less)	L (L shows the control value of 50% or less)	H (H shows the control value more than 50%)	L (L shows the control value of 50% or less)	–	–	–	–	–	–
O=c1c(Cl)cc(-n2cc(Cl)cn2)c(-c2c(F)cc(F)cc2F)n1CC(F)(F)F [Compound 121]	–	–	–	–	–	–	–	–	–	–	Test C control value [1]: L (L shows the control value of 50% or less); Test E control value [2]: L (L shows the control value of 50% or less); Test B control value [3]: L (L shows the control value of 50% or less); Test G control value [4]: L (L shows the control value of 50% or less); Test D control value [5]: L (L shows the control value of 50% or less)
CCn1c(-c2c(F)cc(OC)cc2F)c(-n2cc(Cl)c(C)n2)cc(Br)c1=O [Compound 146]	–	–	–	–	–	–	–	–	–	–	Test C control value [1]: H (H shows the control value more than 50%); Test E control value [2]: H (H shows the control value more than 50%); Test B control value [3]: H (H shows the control value more than 50%); Test G control value [4]: H (H shows the control value more than 50%); Test D control value [5]: L (L shows the control value of 50% or less)
O=c1ccc(-c2cc(Br)sc2Cl)c(-c2c(F)cccc2F)n1CC(F)F [Compound 401]	–	–	–	–	–	H (H shows the control value more than 50%)	L (L shows the control value of 50% or less)	L (L shows the control value of 50% or less)	L (L shows the control value of 50% or less)	L (L shows the control value of 50% or less)	–
Nn1c(-c2c(F)cccc2F)c(-n2cc(F)cn2)cc(Br)c1=O [Compound 467]	–	–	–	–	–	L (L shows the control value of 50% or less)	L (L shows the control value of 50% or less)	H (H shows the control value more than 50%)	L (L shows the control value of 50% or less)	L (L shows the control value of 50% or less)	–
Cn1c(-c2c(F)cccc2F)c(-c2cccnc2Cl)ccc1=O [Compound 99]	–	–	–	–	–	–	–	–	–	–	Test C control value [1]: H (H shows the control value more than 50%); Test E control value [2]: H (H shows the control value more than 50%); Test B control value [3]: H (H shows the control value more than 50%); Test G control value [4]: H (H shows the control value more than 50%); Test D control value [5]: H (H shows the control value more than 50%)
CCn1c(-c2ccccc2F)c(-n2cc(F)cn2)cc(Br)c1=O [Compound 384]	–	–	–	–	–	H (H shows the control value more than 50%)	H (H shows the control value more than 50%)	H (H shows the control value more than 50%)	L (L shows the control value of 50% or less)	H (H shows the control value more than 50%)	–
CCn1c(-c2ccccc2F)c(-n2cc(Cl)cn2)cc(Br)c1=O [Compound 221]	H (H shows the control value more than 50%)	L (L shows the control value of 50% or less)	L (L shows the control value of 50% or less)	L (L shows the control value of 50% or less)	L (L shows the control value of 50% or less)	–	–	–	–	–	–
CCn1c(-c2c(F)cc(F)cc2F)c(-n2cccn2)cc(Cl)c1=O [Compound 84]	–	–	–	–	–	–	–	–	–	–	Test C control value [1]: H (H shows the control value more than 50%); Test E control value [2]: H (H shows the control value more than 50%); Test B control value [3]: H (H shows the control value more than 50%); Test G control value [4]: L (L shows the control value of 50% or less); Test D control value [5]: H (H shows the control value more than 50%)
CCn1c(-c2ccc(F)cc2C)c(-n2ncc(C)c2Cl)cc(Cl)c1=O [Compound 369]	H (H shows the control value more than 50%)	H (H shows the control value more than 50%)	H (H shows the control value more than 50%)	L (L shows the control value of 50% or less)	H (H shows the control value more than 50%)	–	–	–	–	–	–
CCn1c(-c2c(F)cccc2F)c(-c2ccsc2C)cc(Cl)c1=O [Compound 390]	–	–	–	–	–	H (H shows the control value more than 50%)	H (H shows the control value more than 50%)	H (H shows the control value more than 50%)	L (L shows the control value of 50% or less)	L (L shows the control value of 50% or less)	–
Cn1c(-c2c(F)cccc2F)c(-c2cccnc2Cl)cc(Cl)c1=O [Compound 105]	–	–	–	–	–	–	–	–	–	–	Test C control value [1]: H (H shows the control value more than 50%); Test E control value [2]: H (H shows the control value more than 50%); Test B control value [3]: H (H shows the control value more than 50%); Test G control value [4]: L (L shows the control value of 50% or less); Test D control value [5]: L (L shows the control value of 50% or less)
O=c1ccc(-c2sccc2Cl)c(-c2c(F)cccc2F)n1CC(F)F [Compound 394]	–	–	–	–	–	H (H shows the control value more than 50%)	H (H shows the control value more than 50%)	H (H shows the control value more than 50%)	H (H shows the control value more than 50%)	H (H shows the control value more than 50%)	–
CCn1c(-c2c(F)cccc2Cl)c(-n2cc(F)cn2)cc(Cl)c1=O [Compound 379]	–	–	–	–	–	H (H shows the control value more than 50%)	H (H shows the control value more than 50%)	H (H shows the control value more than 50%)	L (L shows the control value of 50% or less)	L (L shows the control value of 50% or less)	–
